# Laboratory results reported in PubChem BioAssay AID624296 (National Center for Advancing Translational Sciences (NCATS), 2012).
# Hit rate of the full screen: of about 350,000 compounds, about 9,900 (2.8%) were called active. Inconclusive means that the source gave no clear call. Such entries were picked first, then a sample of the others. Calls come from the whole dose curve; as a rule, active = well fitted activation curve with a large enough effect; inconclusive = small, poorly fitted or top-dose-only effect; inactive = no such curve, though single readings can be large or run the other way. No potency is given beside an inconclusive call; the fits are too rough.
# Assay: A quantitative high throughput screen for small molecules that induce DNA re-replication in MCF 10a normal breast cells. For activity, positive = re-replication: % of control where 0% means no effect. Note: nearly all actives have a fitted effect of over 50% in size.
# Conditions: MCF 10A DNA re-replication, Hoechst nuclear intensity, 48 h; activity, positive = re-replication: at 46.1 µM (top of the series)
# Potency is the fitted concentration of half-maximal effect; tags give direction and shape of the fitted curve.
Structure (SMILES),Potency,"activity, positive = re-replication"
NS(=O)(=O)c1ccc(CNC(=S)Nc2ccc(F)c(Cl)c2)cc1,inactive,
CC12CCC(C(=O)O)(c3nc(C#N)c(C#N)nc31)C2(C)C (stereo not drawn),inactive,
CCOC(=O)C1=C(C)NC(C)=C(C(=O)OCC)C1c1cccs1,inactive,
CCc1nc2oc3ccccc3c(=O)c2c(=O)n1-c1ccc(C)cc1,inactive,
Oc1ccccc1/C=N/NC(=S)NC1CC2C=CC1C2 (stereo not drawn),active: 10.3 µM,
O=C(Cc1ccc(S(=O)(=O)N2CCOCC2)s1)NCCC(c1ccccc1)c1ccccc1,"inconclusive [activator, partial curve, poor fit]",
COc1ccc(-c2cn(-c3ccc(Br)cc3)c3[n+]2CCS3)cc1,inactive,
Cc1ccc(S(=O)(=O)N2CCN(C(C(=O)Nc3ccc(F)cc3)c3ccccc3)CC2)cc1 (stereo not drawn),"inconclusive [activator, single point]",
COc1ccc(C(=O)NC2CCSC2=O)cc1 (stereo not drawn),"inconclusive [activator, partial curve, poor fit]",
COc1ccc(CCn2c(=S)[nH]c3cc(C(=O)NCc4ccco4)ccc3c2=O)cc1OC,"inconclusive [activator, single point]",
CCOCCCNC1=C(Cl)C(=O)c2ccccc2C1=O,"inconclusive [activator, partial curve, poor fit]",
COc1ccc2c(O)c(-c3c(C)cc(C)cc3C)c(=O)[nH]c2c1,"inconclusive [activator, full curve]",
CN1C(=O)C(O)(CC(=O)c2ccccc2O)c2cc(Br)ccc21 (stereo not drawn),"inconclusive [activator, single point]",
O=C(CNCc1cccs1)Nc1ccc(N2CCCCCC2)cc1,"inconclusive [activator, single point]",
CNC(=O)CCc1[nH]c2ccccc2c1Sc1ccccc1,"inconclusive [activator, single point]",
Clc1cccc(CN2CCC3CC2c2cc(N4CCCCC4)ccc23)c1 (stereo not drawn),"inconclusive [activator, partial curve]",
CC(=O)c1ccc(NC(=O)Nc2cccnc2)cc1,,inconclusive: -32.6% [activator]
CCOC(=O)c1c(C2CC2)csc1NC(=O)CSCc1c(C)noc1C,"inconclusive [activator, partial curve, poor fit]",
COc1cc2c(cc1OC)CN(C(=O)c1oc3ccccc3c1C)CC2,"inconclusive [activator, single point]",
COc1ccc(OC)c(NC(=O)c2nc(S(=O)(=O)Cc3ccccc3)ncc2Cl)c1,active: 1.64 µM,
CN(CC(=O)Nc1ccccc1C(F)(F)F)C(=O)c1cccc(-n2cccc2)c1,inactive,
CCc1ccc(/C=C/c2c([N+](=O)[O-])c(=O)n(C)c(=O)n2C)cc1,active: 13 µM,
O=C(COc1ccc(Cl)cc1)Nc1ccc(C(=O)O)cc1NC(=O)COc1ccc(Cl)cc1,inactive,
COc1ccccc1-c1ccc(Nc2cccc(C(C)=O)c2)nn1,inactive,

Structure (SMILES),Potency,"activity, positive = re-replication"
CC(CN)(NS(=O)(=O)c1ccccc1)c1ccccc1 (stereo not drawn),inactive,
CCc1nc(SCC(=O)N2CCCc3ccccc32)c2oc3ccccc3c2n1,active: 16.4 µM,
O=C(NCC(=O)N1CCCCC1)c1ccc(Cl)cc1Cl,inactive,
O=c1[nH]c(CSc2ncc(C(F)(F)F)cc2Cl)nc2ccccc12,"inconclusive [activator, single point]",
Nc1c(C(=O)Nc2ccccc2Cl)nnn1-c1ccc2c(c1)OCCO2,"inconclusive [activator, single point]",
CSc1ccc(/C=N\Nc2nncn2N)cc1,"inconclusive [activator, single point]",
COc1ccc(C2NC(=O)c3ccccc3N2)cc1OC (stereo not drawn),"inconclusive [activator, partial curve, poor fit]",
O=C(C(=O)c1cccnc1)c1cccnc1,inactive,
COc1cc2c(cc1OC)C(=S)NC(C)(C)C2,inactive,
COc1cccc(-c2cc(C(F)(F)F)nc(N3CCC(C)CC3)n2)c1,"inconclusive [activator, single point]",
O=C(NCCc1ccccn1)c1c(-c2ccccc2)sc2ccccc12,inactive,
COc1nc(N)c(S(=O)(=O)c2ccc(C)cc2)cc1C#N,"inconclusive [activator, partial curve]",
CCOc1ccc(CNC(c2ccccc2)c2ccccc2)cc1,"inconclusive [activator, partial curve, poor fit]",
COc1ccc(C(CC(=O)N2CCCC2)c2c(OC)cc(OC)c3ccc(=O)oc23)cc1 (stereo not drawn),"inconclusive [activator, full curve, poor fit]",
N#CC(C#N)=CC1=C2OC(c3ccccc3)=CC(c3ccccc3)=C2CCC1,"inconclusive [activator, partial curve, poor fit]",
CCOc1ccc(Br)cc1C1=CC(=O)C[C@H](c2ccc(OC)cc2)C1,active: 2.91 µM,
Cc1noc(C)c1NC(=O)Nc1ccc2c(c1)C(=O)N([C@H](C)CO)C[C@H](C)[C@H](CN(C)C)O2,inactive,
CCCCN(CC)C(=S)Nc1ccc2nc(N3CCN(C)CC3)cc(C)c2c1,"inconclusive [activator, partial curve]",
CCOc1ccccc1C(=O)Nc1ccccc1-c1ccccc1,active: 20.6 µM,
CC(NC(=O)COC(=O)c1cc(Cl)ccc1O)C1CC2CCC1C2 (stereo not drawn),inactive,
CC(=O)OC1(C(C)=O)CCC2C3CC(Cl)C4=CC(=O)CCC4(C)C3CCC21C (stereo not drawn),"inconclusive [activator, single point]",
O=C(CSc1nc(-c2ccccc2)ns1)N1CCOCC1,inactive,
CCc1ccc(NC(=O)c2cnc(N3CCN(c4ccccn4)CC3)c3ccccc23)cc1,"inconclusive [activator, partial curve, poor fit]",
CC(C)C1CC(C(F)(F)F)n2nc(C(=O)O)cc2N1 (stereo not drawn),inactive,
